PubChem BioAssay AID1159614 (National Center for Advancing Translational Sciences (NCATS), 2016)
Out of some 45,000 compounds screened, about 65 (0.1%) were called active. Calls come from the whole dose curve; as a rule, active = well fitted activation curve with a large enough effect; inconclusive = small, poorly fitted or top-dose-only effect; inactive = no such curve, though single readings can be large or run the other way. This is one part of the list.

The molecules below were run against Galactocerebrosidase (Homo sapiens) (UniProt P54803) (assay: A Novel Cell-Based Assay to Identify Small Molecules for B -Galactocerebrosidase). Conditions: 145M-Twi-hGALC-G270D cells (Twitcher mouse brain line with human GALC G270D), HMU-beta-Gal fluorescence, 48 h; activation: at the top concentration.
Chain of UniProt P54803 (P54803 whole entry, looked up): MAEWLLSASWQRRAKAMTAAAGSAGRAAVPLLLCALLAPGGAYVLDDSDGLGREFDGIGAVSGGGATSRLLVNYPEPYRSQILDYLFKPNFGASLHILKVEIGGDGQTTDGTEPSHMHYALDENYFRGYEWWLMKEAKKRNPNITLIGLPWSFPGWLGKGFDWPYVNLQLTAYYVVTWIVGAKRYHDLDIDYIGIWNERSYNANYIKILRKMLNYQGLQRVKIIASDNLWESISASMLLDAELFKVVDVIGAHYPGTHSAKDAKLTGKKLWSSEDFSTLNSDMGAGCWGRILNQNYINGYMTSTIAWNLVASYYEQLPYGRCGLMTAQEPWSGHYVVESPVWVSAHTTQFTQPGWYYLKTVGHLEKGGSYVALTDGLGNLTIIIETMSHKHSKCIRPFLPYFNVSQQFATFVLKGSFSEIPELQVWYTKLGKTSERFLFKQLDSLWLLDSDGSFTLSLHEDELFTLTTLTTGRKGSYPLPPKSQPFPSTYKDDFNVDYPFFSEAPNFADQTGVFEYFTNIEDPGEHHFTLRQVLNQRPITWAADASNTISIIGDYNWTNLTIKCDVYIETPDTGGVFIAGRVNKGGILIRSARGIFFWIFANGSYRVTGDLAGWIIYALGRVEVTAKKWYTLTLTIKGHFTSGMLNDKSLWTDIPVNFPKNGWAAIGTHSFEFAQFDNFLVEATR
Outline: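 Live 145M-Twi cells (Twitcher mouse brain-derived, GALC-null) stably expressing human GALC-G270D, with a wild-type GALC line, were compound-treated. Residual GALC activity was then read as fluorescence from 0.1 mM final HMU-β-gal at pH 5.2; higher signal means activation.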
Note: 0% is about no effect; nearly all actives have a fitted effect of over 65% in size.

SMILES	activation
C#C[C@]1(O)CC[C@H]2[C@@H]3CCC4=CC(=O)CCC4=C3C=C[C@@]21CC	inactive: -16.1%
CCN(CC)C(=O)N[C@@H]1C=C2c3cccc4[nH]cc(c34)C[C@@H]2N(C)C1	inactive: -5.72%
N#Cc1cc([N+](=O)[O-])ccc1NC(=O)c1cccn(Cc2cccc(F)c2)c1=O	inactive: -10.3%
NC1=NC(=O)C(c2ccccc2)O1 (configuration not stated)	inactive: -7.19%
CCOC(=O)C1(c2ccccc2)CCN(CCC(C#N)(c2ccccc2)c2ccccc2)CC1	inactive: -22%
CN(C)CCc1ccc(O)cc1	inactive: -9.39%
CN1CCN(c2csc3ccc(F)cc3c2=O)CC1	inactive: -2.47%
CC(=O)[C@H]1CC[C@H]2[C@@H]3CC[C@H]4C[C@](C)(O)CC[C@]4(C)[C@H]3CC[C@]12C	inactive: -12.7%
CSc1ccc(C(c2c(O)c3ccccc3oc2=O)c2c(C)n(C)n(-c3ccccc3)c2=O)cc1 (configuration not stated)	inactive: -1.73%
CCOC(=O)c1c(C)[nH]c(C)c1S(=O)(=O)NCC(=O)N1CCN(c2cc(Cl)ccc2C)CC1	inactive: -30.9%
ClCCCN1CCN(c2cccc(Cl)c2)CC1	inactive: -14.8%
N#Cc1cc2c(nc1SCC(=O)Nc1cccc(F)c1)C1CCN2CC1	inactive: -3.97%
CCOc1ccc(-n2c(/C=C/c3ccccc3)nc3ccccc3c2=O)cc1	inactive: -10.3%
O=[N+]([O-])c1cc([N+](=O)[O-])c2ccccc2c1	inactive: -8.96% [at 114 µM]
CN1CC[C@]23c4c5ccc(O)c4O[C@H]2[C@@H](O)C=C[C@H]3[C@H]1C5	inactive: -4.87% [at 114 µM]
CCCN(CCC)CCc1c[nH]c2ccccc12	inactive: -10.5% [at 114 µM]
CC(C)=C[C@@H]1[C@@H](C(=O)OCc2coc(Cc3ccccc3)c2)C1(C)C	inactive: -11%
CCC(CC)(CNC(=O)CCCO)c1cccc(OC)c1	inactive: -6.51%
O=C1OC(c2ccc(O)c(S(=O)(=O)O)c2)(c2ccc(O)c(S(=O)(=O)O)c2)c2c(Br)c(Br)c(Br)c(Br)c21	inactive: -14.2%
NCC(CC(=O)O)c1ccc(Cl)cc1 (configuration not stated)	inactive: -14.7% [at 0.46 µM]
CCOC(=O)CC(SP(=S)(OC)OC)C(=O)OCC (configuration not stated)	inactive
CC1(C)OC[C@@H](COC(=O)CCc2ccc(OC[C@@H](O)CNCCNC(=O)N3CCOCC3)cc2)O1	inactive: -13.5%
O=C(Nc1ccc2c(c1)OCO2)c1cccn(Cc2ccc(F)cc2)c1=O	inactive: -19.3%

SMILES	activation
Cn1c(=O)n(C)c2cc(CNCCc3ccccc3)ccc21	inactive: -15.4%
Cc1ccccc1Cn1cccc(C(=O)Nc2cc(Cl)ccc2C#N)c1=O	inactive: -17.2%
CN(C)[C@@H]1C(=O)C(C(N)=O)=C(O)[C@@]2(O)C(=O)C3=C(O)c4c(O)cccc4[C@@](C)(O)[C@H]3C[C@@H]12	inactive: -11%
NCc1cccnc1	inactive: -12.4%
Cc1cc(NC(=O)c2cccn(Cc3cccc([N+](=O)[O-])c3)c2=O)no1	inactive: -21.8%
CCOc1ccc2nc(NC(=O)c3cccn(Cc4ccccc4C)c3=O)sc2c1	inactive: -14%
CCC(=O)N1CC(=O)Nc2ccc(C)cc2C1c1ccc(F)cc1 (configuration not stated)	inactive: -7.78%
CC(NC(C)(C)C)C(=O)c1cccc(Cl)c1 (configuration not stated)	inactive: -14.6%
CCc1ccc(OCC(=O)N2CCN(CCc3ccccn3)CC2)cc1	inactive: -4.58%
COc1ccc(-c2nc(CN3C(=O)CN=C(c4ccccc4)c4ccccc43)c(C)o2)cc1OC	inactive: -8.57%
O=C1CN=C(c2ccccc2)c2cc(Cl)ccc2N1Cc1ccc(Cl)cc1	inactive: -18.6%
Cn1c(CCCC(=O)O)nc2cc(N(CCCl)CCCl)ccc21	inactive: -6.78%
COc1ccccc1-n1c(/C=C/c2ccccc2)nc2ccccc2c1=O	inactive: -6.2%
COc1ccc(-c2nn3c(=O)cc(CN4CCN(C(=O)COc5ccc(F)cc5)CC4)nc3s2)cc1	inactive: 1.37%
O=C1CC[C@@]2(O)[C@H]3Cc4ccc(O)c5c4[C@@]2(CCN3CC2CC2)[C@H]1O5	inactive: -20.4%
NC(=O)c1cc([N+](=O)[O-])cc([N+](=O)[O-])c1	inactive: -14%
CN1CCN(C(=O)O[C@H]2c3nccnc3C(=O)N2c2ccc(Cl)cn2)CC1	inactive: 8.67%
COC1CC(=C(c2cccs2)c2cccs2)C[N+](C)(C)C1 (configuration not stated)	inactive: -10.6%
Cc1oc(-c2ccc(Cl)cc2)nc1CN1C(=O)CN=C(c2ccccc2)c2cc(Cl)ccc21	inactive: 0.931%
CC(=O)OC1(c2ccccc2)CCN(CCc2ccccc2)CC1	inactive: -3.38% [at 129 µM]
CCN(CC)CCc1c[nH]c2ccccc12	inactive: -5.07% [at 129 µM]
COC(=O)[C@@H](N)CCCN/C(N)=N/[N+](=O)[O-]	inactive: -8.86%
O=c1c(C2CC(c3ccc(-c4ccc(Br)cc4)cc3)Cc3ccccc32)c(O)sc2ccccc12 (configuration not stated)	inactive: -9.52%

SMILES	activation
COc1ccc(Cl)cc1NC(=O)c1sc2nc3c(cc2c1N)N1CCC3CC1	inactive: -11.7%
CN[C@@H](C)[C@H](O)c1ccccc1	inactive: -15.7%
CCc1ccc(-n2nc(C)c3c2NC(=O)CSC3c2ccc(OC)cc2OC)cc1 (configuration not stated)	inactive: -11%
CCC(C(=O)Nc1ccccc1F)N1C(=O)CN=C(c2ccccc2)c2ccccc21 (configuration not stated)	inactive: -2.17%
CC[C@]1(O)CC[C@H]2[C@@H]3CCC4=CCCC[C@@H]4[C@H]3CC[C@@]21C	inactive: -18.3%
Nc1ccc(Cl)cc1	inactive: -10.6% [at 114 µM]
COc1c2c(cc3c1OCO3)CCN(C)C2	inactive: 1.95%
CCOc1ccc(CCNC(=O)c2cc3c(-c4cccc(OC)c4)nn(C)c3s2)cc1OCC	inactive: -14.9%
CCOC(=O)c1ccc(NC(=O)c2cccn(Cc3ccccc3F)c2=O)cc1	inactive: -14.1%
ClCc1cccc(Cl)c1	inactive: -10.9%
O=S(=O)(O)C(F)(F)C(F)(F)C(F)(F)C(F)(F)C(F)(F)C(F)(F)C(F)(F)C(F)(F)F	inactive: -20.6% [at 114 µM]
N#Cc1ccccc1NC(=O)c1cccn(Cc2ccccc2)c1=O	inactive: -16%
Nc1ccc(Cl)cc1C(=O)c1ccccc1F	inactive: -13.5%
N#Cc1nn(-c2c(Cl)cc(C(F)(F)F)cc2Cl)c(N)c1S(=O)C(F)(F)F (configuration not stated)	inactive: -9.04%
NCC(O)c1ccc(O)cc1 (configuration not stated)	inactive: -11.6%
O=C(Cn1cc(C(=O)c2ccccc2)c2ccccc21)Nc1ccc(Br)cc1	inactive: -10.6%
COc1ccc(-c2nc(CN3C(=O)CN=C(c4ccccc4Cl)c4cc(Cl)ccc43)c(C)o2)cc1OC	inactive: -11.3%
CCCc1ccc(OCC(=O)Nc2ccc(Cl)cc2C(=O)c2ccccc2)cc1	inactive: -3.08%
CCc1ccc(-c2nc(CSCC(=O)N3CCN(c4ccc(F)cc4)CC3)c(C)o2)cc1	inactive: -30.8%
CN(C)CCc1c[nH]c2cccc(O)c12	inactive: -7.52% [at 114 µM]
Cc1cccc(CN2C(=O)CN=C(c3ccccc3)c3cc(Cl)ccc32)c1	inactive: -17.3%
